{"source": "the supplement of paper PMC9588766", "note": "Where “and” joins values, the source holds several entries; their conditions need not be identical. Identical values can stand only once. Counter-ions that a name gives are not always drawn. In all, about 1,900 compounds were measured (“cell viability of compound + 1 nM pemigatinib relative to pemigatinib-only (DMSO) wells”: median about 0.95, lowest 2% from about 0.22 on). Some of the results follow."}
{"tested_on": "PDC-DUC18828", "test": "cell viability of compound + 1 nM pemigatinib relative to pemigatinib-only (DMSO) wells (fraction); PDC-DUC18828 is a patient-derived cholangiocarcinoma cell line; higher = less growth inhibition", "conditions": "first compound 1 µM; pemigatinib concentration 1 nM; 72 h", "description": "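Selleck Bioactive library screen in the patient-derived FGFR2 fusion-positive ICC cell line PDC-DUC18828 (500 cells/well). Each compound was tested at 1 uM with 1 nM pemigatinib, in triplicate, for 72 h. Viability was read by CellTiter-Glo and normalised to plate DMSO controls. Value is the paper's averaged normalised viability.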"}
{"molecule": "CN1CCN(Cc2ccc(-c3cnc4[nH]cc(-c5ccc6[nH]ccc6c5)c4c3)cc2)CC1", "note": "+ CCN1C(=O)N(c2c(F)c(OC)cc(OC)c2F)Cc2cnc3[nH]c(CN4CCOCC4)cc3c21 [pemigatinib]", "cell viability": 0.997}
{"molecule": "CCOC(=O)C1=C(C)NC(C)=C(C(=O)OC)C1c1cccc(Cl)c1Cl", "note": "(centres undefined) [Felodipine] + CCN1C(=O)N(c2c(F)c(OC)cc(OC)c2F)Cc2cnc3[nH]c(CN4CCOCC4)cc3c21 [pemigatinib]", "cell viability": 1.02}
{"molecule": "COC(=O)/C=C/C(=O)OC", "note": "[Dimethyl Fumarate] + CCN1C(=O)N(c2c(F)c(OC)cc(OC)c2F)Cc2cnc3[nH]c(CN4CCOCC4)cc3c21 [pemigatinib]", "cell viability": 0.982}
{"molecule": "CC(C)c1cc(C(C)C)c(CC(=O)NS(=O)(=O)Oc2c(C(C)C)cccc2C(C)C)c(C(C)C)c1", "note": "[Avasimibe] + CCN1C(=O)N(c2c(F)c(OC)cc(OC)c2F)Cc2cnc3[nH]c(CN4CCOCC4)cc3c21 [pemigatinib]", "cell viability": 0.96}
{"molecule": "O=C(NNc1nc2cc(F)ccc2n2cccc12)c1cnccn1", "note": "+ CCN1C(=O)N(c2c(F)c(OC)cc(OC)c2F)Cc2cnc3[nH]c(CN4CCOCC4)cc3c21 [pemigatinib]", "cell viability": 0.0465}
{"molecule": "O=C(NC(Cc1cc(=O)[nH]c2ccccc12)C(=O)O)c1ccc(Cl)cc1", "note": "(centres undefined) [Rebamipide] + CCN1C(=O)N(c2c(F)c(OC)cc(OC)c2F)Cc2cnc3[nH]c(CN4CCOCC4)cc3c21 [pemigatinib]", "cell viability": 1.03}
{"molecule": "COc1ccc2[nH]cc(/C=C3\\C(=O)Nc4ccc(NC(=O)CCN5CCCCC5)cc43)c2c1", "note": "+ CCN1C(=O)N(c2c(F)c(OC)cc(OC)c2F)Cc2cnc3[nH]c(CN4CCOCC4)cc3c21 [pemigatinib]", "cell viability": 0.943}
{"molecule": "Clc1cccc(CN=C2Nc3ccccc3NC23CCNCC3)c1", "note": "[Liproxstatin-1] + CCN1C(=O)N(c2c(F)c(OC)cc(OC)c2F)Cc2cnc3[nH]c(CN4CCOCC4)cc3c21 [pemigatinib]", "cell viability": 0.903}
{"molecule": "CC(CNC(=O)c1cccnc1)NC(=O)c1cccnc1", "note": "(centres undefined) [Nicaraven] + CCN1C(=O)N(c2c(F)c(OC)cc(OC)c2F)Cc2cnc3[nH]c(CN4CCOCC4)cc3c21 [pemigatinib]", "cell viability": 0.974}
{"molecule": "O=C(Nc1ccccc1)N1CCN(c2nc(-c3ccccc3)ns2)CC1", "note": "+ CCN1C(=O)N(c2c(F)c(OC)cc(OC)c2F)Cc2cnc3[nH]c(CN4CCOCC4)cc3c21 [pemigatinib]", "cell viability": 0.934}
{"molecule": "CN(c1ncccc1CNc1nc(Nc2ccc3c(c2)CC(=O)N3)ncc1C(F)(F)F)S(C)(=O)=O", "note": "+ CCN1C(=O)N(c2c(F)c(OC)cc(OC)c2F)Cc2cnc3[nH]c(CN4CCOCC4)cc3c21 [pemigatinib]", "cell viability": "0.954 and 0.871 and 0.925"}
{"molecule": "CCc1ccc(OCc2ccccc2C(=O)Nc2ccc3nc(C)cc(N)c3c2)cc1", "note": "+ CCN1C(=O)N(c2c(F)c(OC)cc(OC)c2F)Cc2cnc3[nH]c(CN4CCOCC4)cc3c21 [pemigatinib]", "cell viability": 0.995}
{"molecule": "Cn1nc(C(C)(C)C)cc1C(=O)N[C@@H](Cc1cccc(Cl)c1)C(=O)NCC#N", "note": "[Cathepsin Inhibitor 1] + CCN1C(=O)N(c2c(F)c(OC)cc(OC)c2F)Cc2cnc3[nH]c(CN4CCOCC4)cc3c21 [pemigatinib]", "cell viability": 0.907}
{"molecule": "CN(C)CCc1c[nH]c2ccc(CS(=O)(=O)N3CCCC3)cc12", "note": "[Almotriptan Malate] + CCN1C(=O)N(c2c(F)c(OC)cc(OC)c2F)Cc2cnc3[nH]c(CN4CCOCC4)cc3c21 [pemigatinib]", "cell viability": 0.983}
{"molecule": "CCCCc1ncc(/C=C(\\Cc2cccs2)C(=O)O)n1Cc1ccc(C(=O)O)cc1", "note": "[Eprosartan Mesylate] + CCN1C(=O)N(c2c(F)c(OC)cc(OC)c2F)Cc2cnc3[nH]c(CN4CCOCC4)cc3c21 [pemigatinib]", "cell viability": 0.975}
{"molecule": "CN1CCN2c3ccccc3Cc3ccccc3C2C1", "note": "(centres undefined) [Mianserin HCl] + CCN1C(=O)N(c2c(F)c(OC)cc(OC)c2F)Cc2cnc3[nH]c(CN4CCOCC4)cc3c21 [pemigatinib]", "cell viability": 1.04}
{"molecule": "CN1CCCN(C(=O)c2cccc(-c3ccc(/C=C4/C(=O)Nc5ccc(Cl)cc54)o3)c2)CC1", "note": "+ CCN1C(=O)N(c2c(F)c(OC)cc(OC)c2F)Cc2cnc3[nH]c(CN4CCOCC4)cc3c21 [pemigatinib]", "cell viability": 0.587}
{"molecule": "CCCCCCCCOc1ccccc1C(=O)Nc1ccc(C(=O)OCC[N+](C)(CC)CC)cc1", "note": "[Otilonium Bromide] + CCN1C(=O)N(c2c(F)c(OC)cc(OC)c2F)Cc2cnc3[nH]c(CN4CCOCC4)cc3c21 [pemigatinib]", "cell viability": 0.927}
{"molecule": "O=C1CC[C@@H](C(=O)N2CSC[C@H]2C(=O)O)N1", "note": "[Pidotimod] + CCN1C(=O)N(c2c(F)c(OC)cc(OC)c2F)Cc2cnc3[nH]c(CN4CCOCC4)cc3c21 [pemigatinib]", "cell viability": 0.818}
{"molecule": "Oc1c(Cl)cc(Cl)c2cccnc12", "note": "[Chloroxine] + CCN1C(=O)N(c2c(F)c(OC)cc(OC)c2F)Cc2cnc3[nH]c(CN4CCOCC4)cc3c21 [pemigatinib]", "cell viability": 0.988}
{"molecule": "c1ccc(-c2ccc(C(c3ccccc3)n3ccnc3)cc2)cc1", "note": "(centres undefined) [Bifonazole] + CCN1C(=O)N(c2c(F)c(OC)cc(OC)c2F)Cc2cnc3[nH]c(CN4CCOCC4)cc3c21 [pemigatinib]", "cell viability": 0.889}
{"molecule": "COc1ccc(Cl)cc1NC(=O)Nc1cc(C)nc2ccccc12", "note": "+ CCN1C(=O)N(c2c(F)c(OC)cc(OC)c2F)Cc2cnc3[nH]c(CN4CCOCC4)cc3c21 [pemigatinib]", "cell viability": 0.959}
{"molecule": "CN(C)CCC(c1ccc(Br)cc1)c1ccccn1", "note": "(centres undefined) [Brompheniramine hydrogen maleate] + CCN1C(=O)N(c2c(F)c(OC)cc(OC)c2F)Cc2cnc3[nH]c(CN4CCOCC4)cc3c21 [pemigatinib]", "cell viability": 0.949}
{"molecule": "O=C(Nc1cccnc1)c1cc(-c2ccnc(F)c2)ccc1OCc1ccccc1", "note": "+ CCN1C(=O)N(c2c(F)c(OC)cc(OC)c2F)Cc2cnc3[nH]c(CN4CCOCC4)cc3c21 [pemigatinib]", "cell viability": 0.914}
{"molecule": "CCC1(c2ccccc2)C(=O)NCNC1=O", "note": "[Primidone] + CCN1C(=O)N(c2c(F)c(OC)cc(OC)c2F)Cc2cnc3[nH]c(CN4CCOCC4)cc3c21 [pemigatinib]", "cell viability": 0.993}
{"molecule": "CCCCc1oc2ccc(NS(C)(=O)=O)cc2c1C(=O)c1ccc(OCCCN(CCCC)CCCC)cc1", "note": "[Dronedarone HCl] + CCN1C(=O)N(c2c(F)c(OC)cc(OC)c2F)Cc2cnc3[nH]c(CN4CCOCC4)cc3c21 [pemigatinib]", "cell viability": 1.02}
{"molecule": "COc1cc(Nc2c(C#N)cnc3cc(OCCCN4CCN(C)CC4)c(OC)cc23)c(Cl)cc1Cl", "note": "[Bosutinib (SKI-606)] + CCN1C(=O)N(c2c(F)c(OC)cc(OC)c2F)Cc2cnc3[nH]c(CN4CCOCC4)cc3c21 [pemigatinib]", "cell viability": 0.762}
{"molecule": "Nc1ncnc2c1ncn2[C@@H]1O[C@H](CO)[C@@H](O)[C@@H]1O", "note": "[Vidarabine] + CCN1C(=O)N(c2c(F)c(OC)cc(OC)c2F)Cc2cnc3[nH]c(CN4CCOCC4)cc3c21 [pemigatinib]", "cell viability": 0.988}
{"molecule": "CC1CCN(CC[C@H]2CCCN2S(=O)(=O)c2cccc(O)c2)CC1", "note": "+ CCN1C(=O)N(c2c(F)c(OC)cc(OC)c2F)Cc2cnc3[nH]c(CN4CCOCC4)cc3c21 [pemigatinib]", "cell viability": 0.924}
{"molecule": "C[C@@](Cc1ccc(O)c(O)c1)(NN)C(=O)O", "note": "[Carbidopa] + CCN1C(=O)N(c2c(F)c(OC)cc(OC)c2F)Cc2cnc3[nH]c(CN4CCOCC4)cc3c21 [pemigatinib]", "cell viability": 0.983}
{"molecule": "C=CC(=O)Nc1cccc(Oc2nc(Nc3ccc(N4CCN(C)CC4)cc3)ncc2Cl)c1", "note": "+ CCN1C(=O)N(c2c(F)c(OC)cc(OC)c2F)Cc2cnc3[nH]c(CN4CCOCC4)cc3c21 [pemigatinib]", "cell viability": 0.608}
{"molecule": "CCOc1nc2cccc(C(=O)O)c2n1Cc1ccc(-c2ccccc2-c2nnn[nH]2)cc1", "note": "[Candesartan] + CCN1C(=O)N(c2c(F)c(OC)cc(OC)c2F)Cc2cnc3[nH]c(CN4CCOCC4)cc3c21 [pemigatinib]", "cell viability": 1.1}
{"molecule": "Oc1cc2c(cc1O)C(c1ccccc1)CNCC2", "note": "(centres undefined) + CCN1C(=O)N(c2c(F)c(OC)cc(OC)c2F)Cc2cnc3[nH]c(CN4CCOCC4)cc3c21 [pemigatinib]", "cell viability": 0.944}
{"molecule": "Cn1c(=O)c2c(ncn2CC2OCCO2)n(C)c1=O", "note": "[Doxofylline] + CCN1C(=O)N(c2c(F)c(OC)cc(OC)c2F)Cc2cnc3[nH]c(CN4CCOCC4)cc3c21 [pemigatinib]", "cell viability": 0.967}
{"molecule": "COCC(=O)NC/C=C/c1ccc2ncnc(Nc3ccc(Oc4ccc(C)nc4)c(C)c3)c2c1", "note": "+ CCN1C(=O)N(c2c(F)c(OC)cc(OC)c2F)Cc2cnc3[nH]c(CN4CCOCC4)cc3c21 [pemigatinib]", "cell viability": 0.973}
{"molecule": "COc1cccc(C=NCCN=Cc2cccc(OC)c2[O-])c1[O-].[Cl-].[Mn+3]", "note": "+ CCN1C(=O)N(c2c(F)c(OC)cc(OC)c2F)Cc2cnc3[nH]c(CN4CCOCC4)cc3c21 [pemigatinib]", "cell viability": 0.943}
{"molecule": "CC(C)NC[C@@H](C(=O)N1CCN(c2ncnc3c2[C@H](C)C[C@H]3O)CC1)c1ccc(Cl)cc1", "note": "+ CCN1C(=O)N(c2c(F)c(OC)cc(OC)c2F)Cc2cnc3[nH]c(CN4CCOCC4)cc3c21 [pemigatinib]", "cell viability": 0.87}
{"molecule": "Cc1ccc([C@@H]2O[C@H](CO)[C@@H](O)[C@H](O)[C@H]2O)cc1Cc1ccc(-c2ccc(F)cc2)s1", "note": "[Canagliflozin] + CCN1C(=O)N(c2c(F)c(OC)cc(OC)c2F)Cc2cnc3[nH]c(CN4CCOCC4)cc3c21 [pemigatinib]", "cell viability": 0.906}
{"molecule": "CC(C)(C)c1cc(C(C)(C)C)c(NC(=O)c2c[nH]c3ccccc3c2=O)cc1O", "note": "[Ivacaftor (VX-770)] + CCN1C(=O)N(c2c(F)c(OC)cc(OC)c2F)Cc2cnc3[nH]c(CN4CCOCC4)cc3c21 [pemigatinib]", "cell viability": 0.904}
